Measurements as given in US12662531B2, “CLDN18.2 antibody and use thereof” (FUTUREGEN BIOPHARMACEUTICAL (BEIJING) CO., LTD., priority 2019, dated 2026).

B1: 18.2-A1F: 18.2-A1 antibody expressed in the CHO-K1 cell line with Fut8 gene knockout (antibody)
heavy: EVQLVQSGAEVKKPGASVKVSCKASGYTFTSSWLIWVRQAPGQGLEWIGTIVPSDSYTNYNQKFKDRATLTVDKSTSTAYMELSSLRSEDTAVYYCTRFRTGNSFDYWGQGTLVTVSS[human IgG1 constant region left out here]
light: DIVMTQSPDSLSVGLGERATINCKSSQSVLNSGNQKNYLTWYQQKPGQPPKLLIYWAVARQSGVPDRFSGSGSGTDFTLTISSLQAEDVAVYYCQNSIAYPFTFGQGTKVEIKRTVAAPSVFIFPPSDEQLKSGTASVVCLLNNFYPREAKVQWKVDNALQSGNSQESVTEQDSKDSTYSLSSTLTLSKADYEKHKVYACEVTHQGLSSPVTKSFNRGEC
B2: 18.2-A4F: 18.2-A4 antibody expressed in the CHO-K1 cell line with Fut8 gene knockout (antibody)
heavy: B1 heavy with S32F, L34I, I35S, T50N, V52L, F99Y, R100W, T101R
light: DIVMTQSPDSLALALGERATINCKSSQSIINSGNQKNYLTWYQQKPGQPPKLLIYWGGTRHSGVPDRFSGSGSGTDFTLTISSLQAEDVAVYYCQNGYYSPFTFGQGTKVEIKRTVAAPSVFIFPPSDEQLKSGTASVVCLLNNFYPREAKVQWKVDNALQSGNSQESVTEQDSKDSTYSLSSTLTLSKADYEKHKVYACEVTHQGLSSPVTKSFNRGEC

How the values were obtained:
[1] = tested on: untransfected Jurkat cells; test: Flow cytometry binding to untransfected Jurkat cells; settings: results not shown
SNU601-CLDN18.2 cells = test: Mouse xenograft model of SNU601-CLDN18.2 cells with human PBMC; type: in vivo, NPG immunodeficient mice
Method: A mouse xenograft model of SNU601 cells was established by subcutaneous inoculation of NPG immunodeficient mice with SNU601-CLDN18.2 cells and Ficoll isolated human PBMC cells (SNU601-CLDN18.2 cells: PBMC is 1:0.8). Subsequently, NPG immunodeficient mice inoculated with SNU601 tumor cells were injected intraperitoneally with 18.2-A1F antibody 18.2-A1F at a dose of 10 mg/kg or 5 mg/kg, or blank control (PBS) or IgG isotype control (ISO), n=15 mice per group. Drugs were administered every 3 days after tumor inoculation, and the volume of tumors in mice was measured.

KATOIII-18.2High cells = test: Mouse xenograft model of KATOIII-18.2High cells with human PBMC; type: in vivo, NPG immunodeficient mice; settings: 18.2-A1F 10 mg/kg; EOF: Epirubicin 1 mg/kg, Oxaliplatin 3 mg/kg, 5-fluorouracil 30 mg/kg; intraperitoneally every 3 days
Source text: As shown by the results in Example 14, in vitro EOF combined chemotherapy was capable of increasing CLDN18.2 antibody induced FcγRIIIa receptor activation. KATOIII expressed a very low level of CLDN18.2 when cultured in vitro in IMDM medium, with only about 5.2% of the cells showing obvious positivity in flow cytometry (FIG. 11). After flow cytometry sorting, KATOIII cells with high CLDN18.2 expression (KATOIII-18.2High) were selected to inoculate NPG immunodeficient mice for xenograft model experiments (FIG. 16).
A xenograft model of KATOIII-18.2High cells was established by subcutaneously inoculating NPG immunodeficient mice with KATOIII-18.2High cells and Ficoll isolated human PBMC cells (KATOIII-18.2High cells: PBMC is 1:0.8). Subsequently, NPG immunodeficient mice inoculated with KATOIII-18.2High tumor cells were injected intraperitoneally with isotype control antibody (ISO), EOF (Epirubicin: 1 mg/kg; Oxaliplatin: 3 mg/kg; 5-fluorouracil: 30 mg/kg), 10 mg/kg dose of 18.2-A1F antibody, or EOF and 18.2-A1F, n=6 mice per group. Drugs were administered every 3 days after tumor inoculation, and the volume of tumors in mice was measured.

| Molecule | binding to untransfected Jurkat cells [1] | tumor suppression compared to PBS and IgG isotype control (SNU601-CLDN18.2 cells; 5 mg/kg intraperitoneally every 3 days) | tumor suppression compared to PBS and IgG isotype control (SNU601-CLDN18.2 cells; 10 mg/kg intraperitoneally every 3 days) | tumor growth compared to EOF group and control antibody group (KATOIII-18.2High cells) |
| --- | --- | --- | --- | --- |
| B1 | not able to bind | good tumor suppression effects | good tumor suppression effects | effectively inhibiting tumor growth |
| B2 | not able to bind | – | – | – |

Where a chain is given by its changes, count along the chain named. Names may count otherwise.
